# Assay results published in PubChem BioAssay AID624202 (National Center for Advancing Translational Sciences (NCATS), 2012).
# The whole screen tested about 380,000 compounds, of which about 4,000 (1.1%) were called active. The shares of active, inactive and inconclusive entries below differ from those in the screen. Calls follow the shape of the dose curve; as a rule, active = well fitted activation curve with a large enough effect; inconclusive = small, poorly fitted or top-dose-only effect; inactive = no such curve, though single readings can be large or run the other way. Potencies beside an inconclusive call are fits to weak or partial responses and may not hold up.
# Assay: qHTS Assay to Identify Small Molecule Activators of BRCA1 Expression; also: nearly all actives have a fitted effect of over 80% in size
# Conditions: MCF7-BRCA1-FFLuc reporter, luminescence, 48 h; activation: at 46.1 µM (top of the series), scaled: vehicle 0%, 10 µM genistein 100% unless noted
# Method in brief: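 Luminescence from a BRCA1-driven firefly luciferase in MCF7 cells was the read-out, taken 15 min after substrate addition following 48 h compound exposure at 37 °C. Data were normalized to a 10 microM genistein control and DMSO vehicle.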
# Potency is read from the fitted curve at half-maximal effect; tags tell the direction and shape of the fitted curve.
SMILES,Potency,activation
OC(c1ccccc1)c1ncc(-c2ccccc2F)[nH]1 (centres undefined),"inconclusive: 12.6 µM [activator, partial curve, poor fit]",
COCC(C)N=C1NN=C(c2c[nH]c3ccccc23)CS1 (centres undefined),"inconclusive: 12.6 µM [activator, partial curve, poor fit]",
O=C(Nc1scc(-c2ccccc2)c1C(=O)O)c1ccc(F)cc1,"inconclusive: 8.91 µM [activator, partial curve, poor fit]",
COc1ccc(C(=O)Nc2ccc3c(c2)OCCO3)c(OC)c1,"inconclusive: 1.26 µM [activator, full curve, poor fit]",
NC(=O)C1CCN(c2nc(-c3cccs3)cs2)CC1,active: 1.26 µM,
COc1cc(/C=N/Nc2ccccn2)ccc1OCC(C)C,inactive,
CC(C)(C)C(=O)N1CCN(c2nc3ccc(Cl)cc3s2)CC1,"inconclusive: 1.41 µM [activator, full curve, poor fit]",
CCOC(=O)c1ccc(NC(=O)c2cccnc2)cc1,"inconclusive: 17.8 µM [activator, partial curve, poor fit]",
COc1ccc(CN2C(=O)C(C)S/C2=N/N=C/c2ccco2)cc1 (centres undefined),active: 11.2 µM,
Cc1ccsc1C(=O)OCC(=O)N1CCc2ccccc2C1,active: 7.94 µM,
Cc1cc(/C(N)=N/OC(=O)Nc2ccc(Cl)cc2)no1,"inconclusive: 35.5 µM [activator, single point]",
COc1ccc2nc(SCC(=O)/C(C#N)=C(\C)N)[nH]c2c1,"inconclusive: 1.78 µM [activator, full curve, poor fit]",
COc1ccc(NC(=O)c2ccccc2)cc1,"inconclusive: 3.98 µM [activator, full curve, poor fit]",
C[C@H](CO)N1C[C@H](C)[C@@H](CN(C)C(=O)Nc2ccc(C(F)(F)F)cc2)Oc2c(NC(=O)Nc3ccc4c(c3)OCO4)cccc2C1=O,inactive,
CCCc1nn(C)c(C(=O)Nc2ccc3ccccc3c2)c1Cl,"inconclusive: 6.31 µM [activator, partial curve, poor fit]",
c1ccc(OCCOc2cccc3cccnc23)cc1,"inconclusive: 12.6 µM [activator, partial curve, poor fit]",
O=C(/C=C/c1ccccc1[N+](=O)[O-])Nc1ccccc1,active: 7.08 µM,
Fc1cccc(Cl)c1Cc1noc(/C=C/c2ccccc2)n1,"inconclusive: 14.1 µM [activator, single point]",
Clc1ccccc1Nc1ncnc2c1nc1n2CCCCC1,"inconclusive: 7.08 µM [activator, full curve, poor fit]",
CCCn1nnc2sc3c(c2c1=O)CCC(C)C3 (centres undefined),"inconclusive: 15.8 µM [activator, partial curve, poor fit]",
Cc1cc(C)c2sc(N3CCN(C(=O)C4CC4)CC3)nc2c1,"inconclusive: 28.2 µM [activator, single point]",
NC(=O)C1=C[C@H](C2CCCCC2)C[C@H](OCc2ccc(CO)cc2)O1,"inconclusive: 3.16 µM [activator, full curve, poor fit]",
O=C(NCC1CCCO1)c1cccc(Oc2ccccc2)c1 (centres undefined),"inconclusive: 10 µM [activator, partial curve, poor fit]",
Cc1ccsc1C1Nc2ccc3ncccc3c2C2=C1C(=O)CC(C)(C)C2 (centres undefined),inactive,
O=C(CSc1nnc([C@@H]2CCCN2)o1)c1ccc(Cl)cc1,"inconclusive: 14.1 µM [activator, partial curve, poor fit]",

SMILES,Potency,activation
Cc1onc(-c2ccccc2Cl)c1C(=O)OCC(=O)Nc1ccc2c(c1)OCO2,inactive,
Cc1ccc2c(c1)NC(=O)CC(c1ccccc1)=N2,active: 10 µM,
Fc1ccc2nc3[nH]c4ccccc4c3nc2c1,"inconclusive: 7.08 µM [activator, partial curve, poor fit]",
Cc1cccc(/C(N)=N/OC(=O)C23CC4CC(CC(C4)C2)C3)c1,active: 10 µM,
COCCN(C(=O)COC(=O)c1ccccc1NCc1ccco1)c1c(N)n(Cc2ccccc2)c(=O)[nH]c1=O,inactive,
COc1cccc(NC(=O)COc2cccnc2[N+](=O)[O-])c1,inactive,
O=C(Oc1ccc(-c2cnc3ccccc3n2)cc1)c1ccc(Br)o1,"inconclusive: 3.55 µM [activator, full curve, poor fit]",
CC(C)c1ccccc1OCC(=O)Nc1ccccc1C(=O)N1CCOCC1,inactive,
Cc1ccsc1/C=N/Nc1ccc(C(=O)O)cc1,,inconclusive: -61.7% [activator]
CCN(CC)C(=S)SCC(=O)c1ccccc1,active: 7.94 µM,
Cc1ccc(-c2noc(-c3ccno3)n2)cc1,active: 8.91 µM,
O=C(O)C1CCN(c2ccccc2[N+](=O)[O-])CC1,inactive,
Cc1cccc(/C(N)=N/OC(=O)CCc2ccccc2)c1,active: 12.6 µM,
NNC(=O)c1nn(-c2ccc(Cl)cc2)cc1O,inactive,
NC(=Nc1ccc(Br)cc1)c1ccccc1,"inconclusive: 17.8 µM [activator, partial curve, poor fit]",
NC(=O)c1c(NC(=O)c2ccccc2F)sc2c1CCCC2,"inconclusive: 0.631 µM [activator, full curve, poor fit]",
Clc1ccccc1-c1cc2nc(NCc3ccco3)ccn2n1,"inconclusive: 6.31 µM [activator, partial curve, poor fit]",
CCOc1ccc(C2=Nc3ccc(Br)cc3C(c3ccc(N4CCOCC4)cc3)=NN2)cc1,"inconclusive: 14.1 µM [activator, partial curve, poor fit]",
CN(C)c1ccc(C(CNC(=O)c2cccs2)N(C)C)cc1 (centres undefined),active: 12.6 µM,
COc1ccccc1Nc1nnc(SCC(=O)N2CCCC2)s1,"inconclusive: 12.6 µM [activator, partial curve, poor fit]",
Fc1cccc(Cl)c1Cn1nnc(-c2ccc3c(c2)OCO3)n1,active: 8.91 µM,
CN1CCN(C(=O)c2cccc(COc3cc(Cl)ccc3Cl)c2)CC1,"inconclusive: 2.82 µM [activator, partial curve, poor fit]",
CC(C)c1ccc(NC(=O)c2cccc(Br)c2)cc1,"inconclusive: 1.58 µM [activator, partial curve, poor fit]",
CCOC(=O)C1(Cc2ccccc2C)CCCN(C(=O)c2ccoc2)C1 (centres undefined),inactive,
O=C(Nc1nccs1)C1CCN(S(=O)(=O)c2c(Cl)cccc2Cl)CC1,inactive,

SMILES,Potency,activation
Cc1cccc(Nc2nc(Cl)ncc2F)c1C,inactive,
COc1ccc2c(c1)CCc1sc(NC(=O)c3ccco3)nc1-2,active: 10 µM,
CCc1c(C(=O)Nc2ccc(C)c(C)c2)[nH]c(C)c1C(C)=O,"inconclusive: 1.58 µM [activator, partial curve, poor fit]",
CCOC(=O)c1ccccc1N/C=C/C(=O)c1ccccc1,inactive,
Nc1nonc1-n1nnc(C(=O)N/N=C/c2ccc(OCc3cccc(Cl)c3)cc2)c1CN1CCCCC1,active: 2.51 µM,
O=C(CCc1nnc(C2CCCCC2)o1)N1CCN(c2ccccc2F)CC1,"inconclusive: 8.91 µM [activator, partial curve, poor fit]",
O=C(CSc1ncccc1C(=O)O)c1cccc(C(F)(F)F)c1,active: 15.8 µM,
Cc1ccccc1C(=O)c1cccn1CC(=O)NCc1ccccc1Cl,"inconclusive: 12.6 µM [activator, partial curve, poor fit]",
O=S(=O)(Nc1ccc2nc(N3CCOCC3)sc2c1)c1ccccc1,"inconclusive: 7.08 µM [activator, partial curve, poor fit]",
COc1ccc(C(=O)COc2ccccc2N2C(=O)C3C4C=CC(C4)C3C2=O)cc1 (centres undefined),"inconclusive: 12.6 µM [activator, partial curve, poor fit]",
Cc1ccc(C(=O)N2CCCC(N3CCN(c4ccccc4C)CC3)C2)c(=O)[nH]1 (centres undefined),inactive,
O=C(NCCCc1nc2ccccc2n1CCOc1ccccc1)C1CCCCC1,inactive,
O=C(COc1ccc(Cl)cc1Cl)Nc1ccc(Cl)cn1,active: 11.2 µM,
OC(CN1CCCC(C(F)(F)F)C1)c1ccccc1 (centres undefined),"inconclusive: 31.6 µM [activator, single point]",
C=CCNC(=O)Cn1nnc(-c2ccc(-c3ccc(OC)cc3)cc2)n1,"inconclusive: 2.24 µM [activator, full curve, poor fit]",
COc1ccc(C(=O)COC(=O)c2ccc3c(c2)OCCO3)c(OC)c1,"inconclusive: 15.8 µM [activator, single point]",
Cc1ccc(NC(=O)Nc2cc(S(C)(=O)=O)ccc2Cl)cc1,"inconclusive: 12.6 µM [activator, partial curve, poor fit]",
Cc1ccc(S(=O)(=O)N2CCN(C(=O)CN3CCCC3)C2)cc1,inactive,
Cc1ccc(NC(=O)CCCSc2nc3ccccc3[nH]2)cc1,inactive,
CN(C)c1ccc(-c2csc(C(O)c3ccccc3)n2)cc1 (centres undefined),"inconclusive: 2 µM [activator, full curve, poor fit]",
CC1CN(C(=O)Nc2ccc3c(c2)OCO3)CC(C)O1 (centres undefined),"inconclusive: 14.1 µM [activator, partial curve, poor fit]",
O=C(Nc1ccc(-c2nc3cccnc3s2)cc1)c1ccc(Br)o1,"inconclusive: 1.26 µM [activator, partial curve, poor fit]",
Cc1ccc(C(=O)c2coc3c2C(=O)C(=O)c2ccccc2-3)cc1,active: 17.8 µM,
Oc1ccccc1C1=NN(c2ccccc2)C(c2ccc(F)cc2)C1 (centres undefined),inactive,
